# Measurements taken from PMC8468037, “Dimerization of Human Angiogenin and of Variants Involved in Neurodegenerative Diseases” (International Journal of Molecular Sciences, 2021).
# Target: the molecule itself
# Test: SEC; protein lyophilized from 40% HAc (about 25 mg/mL), powder solubilized in 0.40 M NaPi, pH 6.7; Superdex 75 Increase 10/300 in 0.40 M NaPi, pH 6.7; dimer extent = peak area vs. total area eluted
row,Protein,stoichiometry N
1,"S28N-ANG (human angiogenin variant S28N) (enzyme, Human angiogenin, 123 residue protein with S28N, pathogenic variant found in ALS and PD patients; theoretical MW 14,148; Made by site-directed mutagenesis of the wt-ANG cDNA; also called S28N-D (its dimer)) not shown",1.91
2,"R121C-ANG (human angiogenin variant R121C) (enzyme, Human angiogenin, 123 residue protein with R121C, pathogenic variant found in ALS and PD patients; theoretical MW 14,068; Made by site-directed mutagenesis of the wt-ANG cDNA; also called R121C-D (its dimer); R121G-ANG (printed once in the discussion)) not shown",1.92
